Measured values published in ChEMBL document CHEMBL4888484, “Replenishing the malaria drug discovery pipeline: Screening and hit evaluation of the MMV Hit Generation Library 1 (HGL1) against asexual blood stage Plasmodium falciparum ,using a nano luciferase reporter read-out” (2022).
Hit rate of the full screen: of about 150,000 compounds, about 540 (0.36%) showed an effect of 50% or more. Some of the results follow.

Tested on: Plasmodium falciparum
Experiment: Primary screen in NF54 nanoGlo assay, in single point, at 2uM, 72h; a lower Z score goes with more inhibition
Format: functional, Erythrocyte
Details: timepoint 72 hour

| Compound | % Inhibition [%] | Z score |
| --- | --- | --- |
| CC(C)NC(=O)[C@@H]1C[C@@H](NC2CCN(C)CC2)CN1Cc1cccc2ccccc12 | -9 | 1.84 |
| Cn1cc([C@]2(CNC(=O)Cc3ccc(F)cc3)CCCO2)cn1 | -4 | 0.67 |
| CCN(C(=O)CC(=O)Nc1cccc(Cl)c1C)C1CCOCC1 | -14 | 1.57 |
| Cc1nc(CC(=O)NCc2cccc(Cl)c2)sc1C(=O)NCc1ccccc1 | -7 | 0.89 |
| Cc1nn(C)cc1[C@H](C)NC(=O)CC(C)(C)CC(=O)c1ccccc1 | -8 | 1.53 |
| Cc1cccc(C[C@H](C)n2cnc3cccc(C)c3c2=O)n1 | -3 | 0.66 |
| CN(Cc1cc(-c2ccncc2)no1)C[C@]1(c2ccc(F)cc2)CCOC1 | -2 | 0.4 |
| O=C(c1cc[nH]n1)N1CCC[C@H]1c1nnc(C2CCOCC2)[nH]1 | 0 | 0.03 |
| Cc1noc(CNC(=O)c2nnn(-c3ccccc3)n2)n1 | -11 | 2 |
| COc1cccc(Oc2ncnc3oc(C)c(C)c23)c1 | 4 | -0.49 |
| CC(C)CCN1C[C@]2(CCCN(C(=O)c3n[nH]c4c3CCC4)C2)CCC1=O | -6 | 0.72 |
| O=C1CCC2(CCN1)CCN(S(=O)(=O)c1ccccc1F)CC2 | -10 | 1.75 |
| Cn1nc(CN(Cc2ccco2)C(=O)N2CCN(S(C)(=O)=O)C2=O)c2c1CCC2 | 15 | -1.91 |
| O=C(c1ccc2c(c1)OCCO2)N1CCN(S(=O)(=O)c2ccccc2)CC1 | 4 | -0.48 |
| Cc1cc(C(=O)NC2(CN3CCN(c4ccc(F)cc4)CC3)CC2)ns1 | -10 | 1.65 |
| Cc1ccc(Nc2ncccc2S(=O)(=O)Nc2ccc(F)cc2)cc1F | -3 | 0.42 |
| CCOc1ccccc1NCc1cc(=O)n2nc(-c3ccc(F)cc3)nc2[nH]1 | -2 | 0.26 |
| COCc1cc(N2CCCCCCC2)n2nccc2n1 | -22 | 2.04 |
| CCCOc1ccc(C(=O)OC[C@@H]2CCC[N+]3(C)CCCC[C@H]23)cc1 (stereo partly specified) | -14 | 1.23 |
| Cn1ccnc1CN1CCN(C(=O)c2cccc(-c3ccncc3)c2)CC1 | -7 | 0.88 |
| COc1ccc(Nc2ncnc3c(-c4ccccc4)noc23)cc1OC | -11 | 2.04 |
| COc1ccc(NC(=O)CC[C@@H]2CN(Cc3ccccc3)CC[C@@H]2N2CCCC2)cc1OC | 3 | -0.47 |

| Compound | % Inhibition [%] | Z score |
| --- | --- | --- |
| Cc1ncc(S(C)(=O)=O)c(NCc2c(F)cccc2Cl)n1 | -8 | 0.96 |
| c1cc(N2CC[C@]3(CCOC3)C2)c2sccc2n1 | -10 | 1.52 |
| C[C@@](NC(=O)C1CCS(=O)(=O)CC1)(c1ccccc1)C(F)(F)F | -6 | 1.04 |
| Cc1nn(C)c2nc(NCCc3cn[nH]c3)sc12 | 10 | -1.83 |
| Cc1nc(-n2nc(C)c(CC(=O)Nc3ccccc3)c2O)sc1C | -4 | 0.47 |
| O=C(Nc1cccc(-n2cnnc2)c1)C1CC1c1ccccc1C(F)(F)F (stereo unspecified) | 27 | -3.89 |
| COCCc1nc2c(c(N3CCN(c4ccc(Cl)cc4)CC3)n1)CCOCC2 | -14 | 1.33 |
| Cn1cc(C(=O)NC(C2CCC2)C2CCC2)c(-c2ccco2)n1 | -11 | 1.42 |
| c1ccc(-c2noc([C@@H]3CCCN3Cc3ncc[nH]3)n2)nc1 | -16 | 1.73 |
| c1ccc2nc(NCC3CCCCC3)cnc2c1 | -16 | 1.48 |
| O=C(NCc1nccn1CCCc1ccccc1)c1ccon1 | -1 | 0.1 |
| O=S(=O)(C[C@H]1COCCO1)NCCNc1ccccc1 | 1 | -0.08 |
| Cc1ccc(CNCc2cccnc2-n2ccnc2)o1 | -12 | 1.54 |
| Cc1nc(-c2cnn(C)c2)oc1C(=O)N[C@H](C)C(C)(C)C | -8 | 0.93 |
| COc1ccc(C)cc1NC(=O)C1CCN(S(=O)(=O)Cc2cccc(C)c2)CC1 | -8 | 1.45 |
| Cn1ncc(NC(=O)Cn2cc(-c3ccc4cc(Cl)ccc4n3)cn2)n1 | -1 | 0.12 |
| COC(=O)C(NC(=O)C(C)Oc1ccccc1)C(C)C (stereo unspecified) | 12 | -1.65 |
| Cc1n[nH]cc1CN[C@H]1COc2ccccc21 | -12 | 1.86 |
| CCn1ccnc1[C@H]1OCCC[C@@H]1NCc1ccc(Cl)cc1 | -9 | 1.38 |
| CC(=O)NCCCC1(C2OCCO2)CCCCCC1 | -4 | 0.41 |
| Cc1ccc(NC(=O)N2CCC2(C)C)cc1NC(=O)N1CCC1(C)C | -7 | 1.25 |
